Reference: the supplement of paper PMC5499739
In all, about 16,000 sequences were measured (“Z-score”: median about -0.37, highest 2% from about 3.1 on). The list shows a part of the results.

Test system: RBM10 RRM1-ZnF-RRM2 (GST-tagged construct)
Assay: RNAcompete 7-mer binding Z-score; higher = stronger binding preference
Description: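 RNAcompete: 20 pmol GST-tagged RBM10 RNA-binding constructs were incubated with a designed RNA pool of about 241,000 sequences up to 41 nt (1.5 nmol) on glutathione beads for 30 min at 4 °C and washed. Bound RNAs were identified by microarray hybridisation. Each RNA 7-mer is scored by a one-sided Z-score of its enrichment, computed over probes that contain the 7-mer within longer pool sequences.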

Compared with GUACACU, UGGGCAG is higher in “RNAcompete 7-mer binding Z-score” value: -0.286 for the first, 2.27 for the second.

Compared with GUACUAA, AUCGACA is lower in “RNAcompete 7-mer binding Z-score” value: -0.162 for the first, -0.195 for the second.

Going from AGUAUGU to UACCCAU, the “RNAcompete 7-mer binding Z-score” value falls from 0.0313 to -0.901.

Going from CUUGGAG to CGCAUAC, the “RNAcompete 7-mer binding Z-score” value falls from 0.377 to -0.577.

Compared with CCUGUCU, ACGUAUU is higher in “RNAcompete 7-mer binding Z-score” value: -0.945 for the first, -0.515 for the second.

Going from UCAUCGU to UCGUGCA, the “RNAcompete 7-mer binding Z-score” value falls from -0.504 to -0.61.

Compared with CUAGAUG, CAUUUCG is lower in “RNAcompete 7-mer binding Z-score” value: -0.296 for the first, -0.85 for the second.

Compared with CGCGCUG, CGAGCGG is higher in “RNAcompete 7-mer binding Z-score” value: -0.333 for the first, 3.33 for the second.

First: GGGUCGA
Second: ACAUUCG
The “RNAcompete 7-mer binding Z-score” value of the first is higher: 2.01 for the first, -0.541 for the second.

Going from UCAUUGA to GAUGCGG, the “RNAcompete 7-mer binding Z-score” value rises from -0.162 to 1.7.

First: UAUAGAA
Second: AUCAAAG
The “RNAcompete 7-mer binding Z-score” value of the first is higher: -0.027 for the first, -0.0452 for the second.

First: UACGCGC
Second: GAACAAC
The “RNAcompete 7-mer binding Z-score” value of the first is lower: -0.446 for the first, -0.18 for the second.

Going from CCUAGAU to UGGGGGA, the “RNAcompete 7-mer binding Z-score” value rises from -0.752 to 3.33.

Going from CUGCGAU to GGUACAC, the “RNAcompete 7-mer binding Z-score” value rises from -0.923 to 0.836.

Going from ACCUAAU to ACGUGCG, the “RNAcompete 7-mer binding Z-score” value rises from -0.879 to 0.177.

Going from GCUUCGC to UCCAAUC, the “RNAcompete 7-mer binding Z-score” value rises from -0.664 to -0.617.

Compared with UACUACC, AAUGGGC is higher in “RNAcompete 7-mer binding Z-score” value: -0.861 for the first, 2.92 for the second.

First: UCAUUUG
Second: GUUGGCC
The “RNAcompete 7-mer binding Z-score” value of the first is lower: -0.785 for the first, -0.00148 for the second.

First: GCCCCUC
Second: CCAGAAG
The “RNAcompete 7-mer binding Z-score” value of the first is lower: -0.504 for the first, -0.0707 for the second.

Compared with UCUGGAA, CGGACUC is lower in “RNAcompete 7-mer binding Z-score” value: -0.358 for the first, -0.446 for the second.

Going from AGAACCA to GAACUAA, the “RNAcompete 7-mer binding Z-score” value rises from -0.708 to -0.267.

Compared with GUUUGGG, CCCCAGA is lower in “RNAcompete 7-mer binding Z-score” value: 3.06 for the first, -0.53 for the second.

Compared with GAAUUGU, AGGGAUC is higher in “RNAcompete 7-mer binding Z-score” value: -0.0707 for the first, 1.32 for the second.

Compared with GCUUGUG, AGCCCGG is higher in “RNAcompete 7-mer binding Z-score” value: -0.479 for the first, -0.435 for the second.

Going from CUCCGAA to GGUCUAC, the “RNAcompete 7-mer binding Z-score” value rises from -0.755 to -0.00148.

First: CGCCUGA
Second: AUGUUAG
The “RNAcompete 7-mer binding Z-score” value of the first is lower: -0.795 for the first, 0.192 for the second.

Going from CAUGGGA to CGGUAAG, the “RNAcompete 7-mer binding Z-score” value falls from 2.16 to 1.52.

Compared with GUUGGCG, ACUCUCU is lower in “RNAcompete 7-mer binding Z-score” value: 1.37 for the first, -0.803 for the second.

Going from GUAAGUA to GUCUCCC, the “RNAcompete 7-mer binding Z-score” value falls from 0.497 to -0.442.

First: CGCCUUA
Second: CUGAGCA
The “RNAcompete 7-mer binding Z-score” value of the first is lower: -0.97 for the first, -0.337 for the second.

Compared with GUCGACA, UCCCAUA is lower in “RNAcompete 7-mer binding Z-score” value: -0.0998 for the first, -0.77 for the second.

Compared with AAUUGUG, AGCCAGA is lower in “RNAcompete 7-mer binding Z-score” value: -0.00512 for the first, -0.216 for the second.

Going from CUAAUAG to AGUAUGA, the “RNAcompete 7-mer binding Z-score” value rises from -0.329 to -0.0598.

Going from UUGUCAC to AUUGCCC, the “RNAcompete 7-mer binding Z-score” value falls from -0.697 to -0.945.

Compared with UAAUGCC, AUUUCUG is higher in “RNAcompete 7-mer binding Z-score” value: -0.723 for the first, -0.65 for the second.

First: CCGUGUA
Second: UAAAGAA
The “RNAcompete 7-mer binding Z-score” value of the first is higher: -0.0816 for the first, -0.111 for the second.

First: UCCCAAA
Second: CAUCUUC
The “RNAcompete 7-mer binding Z-score” value of the first is higher: -0.781 for the first, -1.04 for the second.

Going from AAUCUGG to CACUGAC, the “RNAcompete 7-mer binding Z-score” value falls from -0.129 to -0.548.

Compared with CCCGGUU, ACCUCGA is lower in “RNAcompete 7-mer binding Z-score” value: -0.42 for the first, -0.668 for the second.

Going from GCUGAAC to GUCUGGU, the “RNAcompete 7-mer binding Z-score” value rises from -0.417 to -0.0525.

Going from CGUGGUG to GUUGUGU, the “RNAcompete 7-mer binding Z-score” value falls from 1.44 to -0.0415.

Going from GAGCACC to UCAGAAU, the “RNAcompete 7-mer binding Z-score” value falls from -0.322 to -0.388.

Going from AGACCGG to CUGUAGC, the “RNAcompete 7-mer binding Z-score” value falls from -0.366 to -0.621.

First: AGACUAU
Second: ACUGCCG
The “RNAcompete 7-mer binding Z-score” value of the first is higher: -0.704 for the first, -0.766 for the second.

Going from GACCUCG to UCCCCCC, the “RNAcompete 7-mer binding Z-score” value rises from -0.737 to -0.296.

Compared with GAGCUCG, GUAAAUC is higher in “RNAcompete 7-mer binding Z-score” value: -0.289 for the first, -0.282 for the second.

Compared with UAUACGA, AUGCUAU is lower in “RNAcompete 7-mer binding Z-score” value: -0.227 for the first, -0.65 for the second.

Compared with UGUGCGC, GAGCUCC is lower in “RNAcompete 7-mer binding Z-score” value: -0.369 for the first, -0.657 for the second.

Compared with ACGUGUU, CAAUGCU is higher in “RNAcompete 7-mer binding Z-score” value: -0.49 for the first, -0.442 for the second.

First: AAAUCAG
Second: GAUAGGU
The “RNAcompete 7-mer binding Z-score” value of the first is lower: 0.0641 for the first, 2.87 for the second.

Going from GAUACCC to UGAAAGC, the “RNAcompete 7-mer binding Z-score” value rises from -0.511 to -0.122.

Going from AUCCGCG to GAUACCA, the “RNAcompete 7-mer binding Z-score” value rises from -0.613 to -0.231.

First: AAAUAGG
Second: CAUAGGC
The “RNAcompete 7-mer binding Z-score” value of the first is higher: 1.24 for the first, 0.0641 for the second.

Compared with UUGGUAU, GGUAUGC is higher in “RNAcompete 7-mer binding Z-score” value: 0.323 for the first, 1.2 for the second.

Going from AAAUACA to AAAUACU, the “RNAcompete 7-mer binding Z-score” value falls from -0.0197 to -0.592.

First: ACCGAGU
Second: GACAACG
The “RNAcompete 7-mer binding Z-score” value of the first is lower: -0.508 for the first, 0.275 for the second.

Compared with ACUGUGC, GUUAGUG is higher in “RNAcompete 7-mer binding Z-score” value: -0.602 for the first, 0.953 for the second.

Compared with CUCGGAU, GCAAGAA is higher in “RNAcompete 7-mer binding Z-score” value: -0.395 for the first, 0.45 for the second.

First: GUCCGCC
Second: CUCAGCU
The “RNAcompete 7-mer binding Z-score” value of the first is higher: -0.766 for the first, -0.814 for the second.

First: UGAGAUC
Second: GGACGAG
The “RNAcompete 7-mer binding Z-score” value of the first is lower: -0.347 for the first, 2.39 for the second.

Going from GCCCGCA to CGCACAU, the “RNAcompete 7-mer binding Z-score” value rises from -0.741 to -0.621.

Compared with UUAUUAU, UUGACUU is lower in “RNAcompete 7-mer binding Z-score” value: -0.486 for the first, -0.832 for the second.

Going from AGACUGU to GACUUCU, the “RNAcompete 7-mer binding Z-score” value falls from -0.788 to -0.992.

First: GGUGUCU
Second: CUAGACC
The “RNAcompete 7-mer binding Z-score” value of the first is higher: 0.159 for the first, -0.876 for the second.

First: ACUCAAG
Second: GUCCAUU
The “RNAcompete 7-mer binding Z-score” value of the first is higher: -0.377 for the first, -0.741 for the second.

First: CUCCCCC
Second: UACUCCA
The “RNAcompete 7-mer binding Z-score” value of the first is higher: -0.526 for the first, -0.668 for the second.

Compared with CCGUAAG, CUACGGU is higher in “RNAcompete 7-mer binding Z-score” value: -0.595 for the first, -0.209 for the second.

First: ACACAGC
Second: ACAUCAC
The “RNAcompete 7-mer binding Z-score” value of the first is higher: -0.442 for the first, -0.708 for the second.

Compared with CCUGCGC, CAUGAGU is higher in “RNAcompete 7-mer binding Z-score” value: -0.883 for the first, -0.00512 for the second.

Compared with AUCUCCA, AGUUCAC is higher in “RNAcompete 7-mer binding Z-score” value: -0.792 for the first, -0.657 for the second.

Going from AUGACGA to CUGUUCC, the “RNAcompete 7-mer binding Z-score” value falls from 0.312 to -0.948.

Compared with GAGCGUC, UGGGUGA is higher in “RNAcompete 7-mer binding Z-score” value: -0.344 for the first, 3.5 for the second.

Compared with UCUAAUA, GGUCCUC is higher in “RNAcompete 7-mer binding Z-score” value: -0.599 for the first, -0.417 for the second.

Compared with CCAACGC, AAGAGCG is higher in “RNAcompete 7-mer binding Z-score” value: -0.504 for the first, 0.691 for the second.

Going from AAGGGCC to GUGUCAU, the “RNAcompete 7-mer binding Z-score” value falls from 1.53 to -0.34.

First: GGUAAGU
Second: CGGGCCU
The “RNAcompete 7-mer binding Z-score” value of the first is higher: 1.71 for the first, -0.351 for the second.

Going from CAUUAGC to UUACAGU, the “RNAcompete 7-mer binding Z-score” value rises from -0.65 to -0.0343.

Going from GCUUUGA to GGCAUUU, the “RNAcompete 7-mer binding Z-score” value rises from -0.719 to -0.293.

First: ACAUAUC
Second: ACCACAG
The “RNAcompete 7-mer binding Z-score” value of the first is lower: -0.526 for the first, -0.18 for the second.

Compared with AGGUCUC, UUGUAUU is lower in “RNAcompete 7-mer binding Z-score” value: -0.468 for the first, -0.632 for the second.

First: GGGGAAG
Second: GGUAUUA
The “RNAcompete 7-mer binding Z-score” value of the first is higher: 3.91 for the first, 1.07 for the second.

Going from ACUUCGU to UGCCUCG, the “RNAcompete 7-mer binding Z-score” value rises from -0.715 to -0.704.

Going from GAUUAAC to GAGCCGA, the “RNAcompete 7-mer binding Z-score” value falls from -0.286 to -0.53.

Compared with ACCUUGU, CCUUCUU is higher in “RNAcompete 7-mer binding Z-score” value: -0.93 for the first, -0.806 for the second.

Compared with AGAACAU, CGCGGCG is higher in “RNAcompete 7-mer binding Z-score” value: -0.398 for the first, 1.09 for the second.

First: GAUGCUC
Second: GCAUUUG
The “RNAcompete 7-mer binding Z-score” value of the first is lower: -0.694 for the first, -0.446 for the second.

First: CGUAAGU
Second: GCACGGU
The “RNAcompete 7-mer binding Z-score” value of the first is lower: -0.162 for the first, 0.519 for the second.

Compared with AGAAAGA, UAGCCUU is lower in “RNAcompete 7-mer binding Z-score” value: 0.519 for the first, -0.755 for the second.

Going from UCGCUGU to UUGGUGC, the “RNAcompete 7-mer binding Z-score” value rises from -0.785 to 0.982.

Compared with GCGUGGG, CAGGGUA is lower in “RNAcompete 7-mer binding Z-score” value: 3.66 for the first, 2.88 for the second.

First: GGACAUG
Second: GUACGCA
The “RNAcompete 7-mer binding Z-score” value of the first is higher: 1.94 for the first, -0.158 for the second.

First: GUCUAAU
Second: CAGACGC
The “RNAcompete 7-mer binding Z-score” value of the first is higher: -0.388 for the first, -0.475 for the second.
